± gives the standard deviation of the averaged measurements. The list shows a part of the results.
The sequences below were run on PfAP2-EXP AP2 domain (GST-tagged) (assay: gcPBM binding intensity (ln(normalized median fluorescence intensity)); higher = stronger DNA binding).
Outline: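 After 1 h on an Agilent 4 × 180k array of primer-extended double-stranded 36-bp intergenic genomic probes and negative controls, bound GST-tagged P. falciparum DNA-binding domains were detected with Alexa488 anti-GST antibody and scanned at 488 nm. The domains had been expressed in E. coli, and binding took place in 1× PBS with 1% milk, 0.2 mg/ml BSA, 0.5% salmon testes DNA and 0.03% Triton X-100. Binding intensity is the highest Masliner-normalised natural-log median intensity across replicate spots of either probe orientation.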

| Sequence | gcPBM binding intensity (ln) |
| --- | --- |
| ATAAATAATTATAATTGTACACATATATATATATAC [XGTACX_site3998] | 8.7 ± 0.33 |
| TTCCACATTTTACAGACACACACAATTTATATTACG [CACACA_site8572] | 8.72 ± 0.42 |
| AAAAAATATTGAAGTACACACATTATGAACTTTTTT [CACACA_site1733] | 8.36 ± 0.23 |
| AGAGCATAATAAAACACACACATACATACCTATATA [CACACA_site6566] | 8.65 ± 0.45 |
| TGTTTTTATAATATTAGTACATAATATACATAATTC [XGTACX_site2787] | 8.46 ± 0.33 |
| AATAAATTAATTTTGGGTACATATATATATATATAT [XGTACX_site3807] | 10.2 ± 0.23 |
| TTTTGTTTCTATATAAGATGGAAATATAAACTTGTA [CACACA_negctrl_site82] | 8.22 ± 0.4 |
| TTAAGATCCTAAAAAACACACAATTGTGAATAATAA [CACACA_site3872] | 8.69 ± 0.53 |
| GTAAGTTGTGCATTCACACACATATATATATATATA [CACACA_site3303] | 10.2 ± 0.28 |
| TATATATATATATATACATGCATATATATAATATAT [TGCATGCA_site763] | 10.1 ± 0.52 |
| TAAAAAAATTTAACATGTACAAATATTGAAAAGGAC [XGTACX_site7608] | 9.42 ± 0.33 |
| ATTAAAAAAGAATATACACACCAAAACTGTTTGTTA [CACACA_site4687] | 8.09 ± 0.4 |
| AGAAAAAAAAAAAAAAAAAAAAAATTGAATATATAT [TGCATGCA_negctrl_site55] | 8.13 ± 0.41 |
| ATATATTTTTACCATACACACATATAACAAATATAT [CACACA_site7706] | 8.75 ± 0.44 |
| TTTATTATCTTATTCACACACATATATATATATATA [CACACA_site2869] | 10.2 ± 0.41 |
| GAAGAATAAATATGCACACATGCATATATTTTTACA [CACACA_site3459] | 8.515 ± 0.035 |
| TACAATTCGTAATACACACACATATATATATATATT [CACACA_site3751] | 8.62 ± 0.36 |
| TCGAACATTAACATAACACACATATAGATTTATATA [CACACA_site7380] | 8.29 ± 0.42 |
| TATTATATATATAGGTGTACGCATTTGTCCTTTATA [XGTACX_site1385] | 8.77 ± 0.34 |
| AAACTTATGTTTACATGTACAGAACTTTATATTATG [XGTACX_site4843] | 8.58 ± 0.31 |
| TTGTATGCTTCCCGACTACATTATGCCATAAATGTA [TGCATGCA_negctrl_site136] | 8.71 ± 0.45 |
| TTATTCTTTAACTAAAATTATATATATATATTATAC [CACACA_negctrl_site1597] | 8.38 ± 0.34 |

| Sequence | gcPBM binding intensity (ln) |
| --- | --- |
| AATAAAAATATATCCACACACATATATAAATATGTA [CACACA_site6415] | 8.16 ± 0.36 |
| TTAAGAATATTTTCATGTACTCATTTTTTTTGTTAT [XGTACX_site1814] | 8.58 ± 0.3 |
| ATTGTAATAAATTGTAGTACATGTAAGGTTTTATTT [XGTACX_site1005] | 8.71 ± 0.29 |
| ATAACTTATTTTTAAAGTACATTATTATATATATAT [XGTACX_site1620] | 9.54 ± 0.26 |
| ATTACATATGTGAGTTGTACTATAAATATATAATAT [XGTACX_site3718] | 8.88 ± 0.5 |
| TTTTTGATATTAAAGGGTACATTATTTACAAAAAAA [XGTACX_site5284] | 8.29 ± 0.34 |
| AAAACAAACATTACACGTACAAAACAAGTTATAGAC [XGTACX_site6320] | 8.91 ± 0.38 |
| ATTCTTTTATTTAGTAGTACATTTGTATTTTATTCA [XGTACX_site5790] | 8.85 ± 0.42 |
| GATCCTGGTTCTTGTGGTACTTGTTCATTTGTTATA [XGTACX_site7164] | 8.91 ± 0.52 |
| CTGCCTTCCATACCCACACACTTCCCATATATTTTA [CACACA_site5491] | 9.16 ± 0.47 |
| ATGCTTTTTTATAAAAGTACATAAAGTTTTTACACT [XGTACX_site7307] | 8.44 ± 0.21 |
| TTTTTTATTGTGAAACTGATATTATATTTTTTATAA [GTGCAC_negctrl_site559] | 8.13 ± 0.3 |
| TAAACATTTTTAATTTTGTAAAATTTTAAATAAAAA [XGTACX_negctrl_site612] | 8.06 ± 0.38 |
| TGAATATTTTATGATTGTACATATTATAATAAACAT [XGTACX_site6113] | 8.45 ± 0.34 |
| ACAAACAAAGAAAGAACACACATACACAAGATACCT [CACACA_site7353] | 8.68 ± 0.66 |
| AATATTTTAATGCACACACACAAAAAAAAAAAAAAA [CACACA_site7374] | 8.54 ± 0.4 |
| AATCCTTTACGACACACACACAAAAAAAAAAAAAAA [CACACA_site6449] | 8.23 ± 0.35 |
| TGTTGGCAGGTGAATGCATGCATATAAGTCTATCTG [TGCATGCA_site781] | 9.95 ± 0.39 |
| CACCCTTTACACAAGGTGCATACTTTATTATATTTT [GTGCAC_site9778] | 8.875 ± 0.049 |
| TTTTTCTTTCTTTCTTTTTTAATATTACAAATGTAT [XGTACX_negctrl_site267] | 8.72 ± 0.65 |
| TTATTAAAACAAAATGTACACACATATAATTTAATG [CACACA_site8193] | 8.38 ± 0.3 |
| TTCAATGCATGTCCATGTACATATAAAAAAAAATAC [XGTACX_site1597] | 8.93 ± 0.34 |

— the supplement of paper PMC11417369
